The IC50 comes from the fitted curve, where viability falls to half of the control; a limit (>, <) means that the fit lies beyond the doses tested. AUC is the area under the same curve over the 256-fold range up to the top dose, as a fraction: 1 means no effect, lower means more sensitive. An inferred top dose was calculated from the reported fits. Drugs with an entry number were screened twice under separate entries, and the two screens often disagree.
Compound: NC(=O)[C@@H](CCC(F)(F)F)N(Cc1ccc(-c2ncon2)cc1F)S(=O)(=O)c1ccc(Cl)cc1 [BMS-708163]
Test: Viability of human cancer cell lines after 72 h of drug (GDSC screen)
Settings: screen: GDSC drug entry 205; top dose inferred
Protocol: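 Human cancer cell lines in 384-well plates, medium with 10% serum, drug for 72 h over a 256-fold dose range (nine 2-fold or five 4-fold steps up to the top dose). Adherent lines were fixed and stained with the nucleic acid dye Syto60, suspension lines read with resazurin; signal relative to control wells, capped at 0 and 100%. One two-parameter sigmoid per drug and line, fitted in a mixed model over all curves with the slope shared within a line.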

In order of rising AUC:
1. RPMI-8402 (T-cell lymphoblastic leukaemia, suspension, top dose 2.56 µM)  0.917
2. SW1417 (large intestine, adherent, top dose 10.24 µM)  0.962
3. NCI-H446 (small cell lung carcinoma, semi-adherent, top dose 10.24 µM)  0.965
4. CHP-126 (neuroblastoma, suspension, top dose 10.24 µM)  0.966
5. RCC-AB (kidney, adherent, top dose 10.24 µM)  0.967
6. CHSA8926 (chondrosarcoma, adherent, top dose 10.24 µM)  0.972
7. MHH-NB-11 (neuroblastoma, adherent, top dose 10.24 µM)  0.975
8. CHSA0011 (chondrosarcoma, adherent, top dose 10.24 µM)  0.976
9. DK-MG (glioma, adherent, top dose 10.24 µM)  0.977
10. Capan-2 (pancreas, adherent, top dose 10.24 µM)  0.977
11. H2591 (mesothelioma, adherent, top dose 10.24 µM)  0.977
12. HPAF-II (pancreas, adherent, top dose 10.24 µM)  0.979
13. COLO-678 (large intestine, semi-adherent, top dose 10.24 µM)  0.98
14. SCC-9 (head and neck, adherent, top dose 10.24 µM)  0.981
15. NCI-H2030 (lung adenocarcinoma, adherent, top dose 10.24 µM)  0.981
16. TK10 (kidney, adherent, top dose 10.24 µM)  0.981
17. VAL (B-cell lymphoma, suspension, top dose 10.24 µM)  0.982
18. D-263MG (glioma, adherent, top dose 10.24 µM)  0.983
19. HT-115 (large intestine, adherent, top dose 10.24 µM)  0.983
20. MKN1 (stomach, adherent, top dose 10.24 µM)  0.986
21. SHP-77 (small cell lung carcinoma, semi-adherent, top dose 10.24 µM)  0.987
22. NCI-H3122 (lung adenocarcinoma, adherent, top dose 10.24 µM)  0.987
23. NCI-H226 (lung squamous cell carcinoma, adherent, top dose 10.24 µM)  0.987
24. COR-L303 (small cell lung carcinoma, suspension, top dose 10.24 µM)  0.987
25. NCI-H2171 (small cell lung carcinoma, suspension, top dose 10.24 µM)  0.988
26. LN-229 (glioma, adherent, top dose 10.24 µM)  0.988
27. SK-HEP-1 (liver, adherent, top dose 10.24 µM)  0.989
28. BC-3 (B-cell lymphoma, suspension, top dose 10.24 µM)  0.989
29. SK-UT-1 (soft tissue, adherent, top dose 10.24 µM)  0.989
30. SU-DHL-5 (B-cell lymphoma, suspension, top dose 10.24 µM)  0.989
31. OVCAR-8 (ovary, adherent, top dose 10.24 µM)  0.99
32. CAL-51 (breast, adherent, top dose 10.24 µM)  0.99

“SHP-77 (small cell lung carcinoma, semi-adherent, top dose 10.24 µM)” and “OVCAR-8 (ovary, adherent, top dose 10.24 µM)” cannot be ordered by IC50: greater than 10.2 µM for the first, greater than 10.2 µM for the second.

“RPMI-8402 (T-cell lymphoblastic leukaemia, suspension, top dose 2.56 µM)” and “VAL (B-cell lymphoma, suspension, top dose 10.24 µM)” cannot be ordered by IC50: greater than 2.56 µM for the first, greater than 10.2 µM for the second.

“DK-MG (glioma, adherent, top dose 10.24 µM)” and “NCI-H2171 (small cell lung carcinoma, suspension, top dose 10.24 µM)” cannot be ordered by IC50: greater than 10.2 µM for the first, greater than 10.2 µM for the second.

“LN-229 (glioma, adherent, top dose 10.24 µM)” and “Capan-2 (pancreas, adherent, top dose 10.24 µM)” cannot be ordered by IC50: greater than 10.2 µM for the first, greater than 10.2 µM for the second.

“COLO-678 (large intestine, semi-adherent, top dose 10.24 µM)” and “HPAF-II (pancreas, adherent, top dose 10.24 µM)” cannot be ordered by IC50: greater than 10.2 µM for the first, greater than 10.2 µM for the second.

“SCC-9 (head and neck, adherent, top dose 10.24 µM)” and “CHP-126 (neuroblastoma, suspension, top dose 10.24 µM)” cannot be ordered by IC50: greater than 10.2 µM for the first, greater than 10.2 µM for the second.

“MKN1 (stomach, adherent, top dose 10.24 µM)” and “SK-HEP-1 (liver, adherent, top dose 10.24 µM)” cannot be ordered by IC50: greater than 10.2 µM for the first, greater than 10.2 µM for the second.

“NCI-H3122 (lung adenocarcinoma, adherent, top dose 10.24 µM)” and “CAL-51 (breast, adherent, top dose 10.24 µM)” cannot be ordered by IC50: greater than 10.2 µM for the first, greater than 10.2 µM for the second.

“NCI-H2030 (lung adenocarcinoma, adherent, top dose 10.24 µM)” and “D-263MG (glioma, adherent, top dose 10.24 µM)” cannot be ordered by IC50: greater than 10.2 µM for the first, greater than 10.2 µM for the second.

“NCI-H226 (lung squamous cell carcinoma, adherent, top dose 10.24 µM)” and “COR-L303 (small cell lung carcinoma, suspension, top dose 10.24 µM)” cannot be ordered by IC50: greater than 10.2 µM for the first, greater than 10.2 µM for the second.

“CHSA0011 (chondrosarcoma, adherent, top dose 10.24 µM)” and “RCC-AB (kidney, adherent, top dose 10.24 µM)” cannot be ordered by IC50: greater than 10.2 µM for the first, greater than 10.2 µM for the second.

“BC-3 (B-cell lymphoma, suspension, top dose 10.24 µM)” and “CHSA8926 (chondrosarcoma, adherent, top dose 10.24 µM)” cannot be ordered by IC50: greater than 10.2 µM for the first, greater than 10.2 µM for the second.

“TK10 (kidney, adherent, top dose 10.24 µM)” and “SK-UT-1 (soft tissue, adherent, top dose 10.24 µM)” cannot be ordered by IC50: greater than 10.2 µM for the first, greater than 10.2 µM for the second.

“H2591 (mesothelioma, adherent, top dose 10.24 µM)” and “NCI-H446 (small cell lung carcinoma, semi-adherent, top dose 10.24 µM)” cannot be ordered by IC50: greater than 10.2 µM for the first, greater than 10.2 µM for the second.

“HT-115 (large intestine, adherent, top dose 10.24 µM)” and “SW1417 (large intestine, adherent, top dose 10.24 µM)” cannot be ordered by IC50: greater than 10.2 µM for the first, greater than 10.2 µM for the second.

“MHH-NB-11 (neuroblastoma, adherent, top dose 10.24 µM)” and “SU-DHL-5 (B-cell lymphoma, suspension, top dose 10.24 µM)” cannot be ordered by IC50: greater than 10.2 µM for the first, greater than 10.2 µM for the second.

Same assay, conditions: top dose 5 µM; screen: GDSC drug entry 1072; top dose inferred

In order of falling AUC:
1. OACM5-1 (oesophagus, semi-adherent)  0.984
2. NCI-H630 (large intestine, adherent)  0.983
3. SUP-B8 (B-cell leukaemia, suspension)  0.983
4. ZR-75-30 (breast, adherent)  0.982
5. OV-56 (ovary, adherent)  0.98
6. Hey (ovary, adherent)  0.959
7. IGROV-1 (ovary, adherent)  0.953
8. NCC021 (kidney, adherent)  0.63

Compared with NCC021 (kidney, adherent), OV-56 (ovary, adherent) is higher in IC50: 0.759 µM for the first, greater than 5 µM for the second.

IGROV-1 (ovary, adherent) and ZR-75-30 (breast, adherent) cannot be ordered by IC50: greater than 5 µM for the first, greater than 5 µM for the second.

NCI-H630 (large intestine, adherent) and SUP-B8 (B-cell leukaemia, suspension) cannot be ordered by IC50: greater than 5 µM for the first, greater than 5 µM for the second.

Hey (ovary, adherent) and OACM5-1 (oesophagus, semi-adherent) cannot be ordered by IC50: greater than 5 µM for the first, greater than 5 µM for the second.
